# Earlier results, collected in paper PMC11006913.
# Changes are numbered by the printed parent chain. This is one part of the list.
# Assays:
# Conditions in all cases: PBM; conditions not shown; double strand, one strand shown; scale: upbm affinity estimate (log intensity, higher = more binding, comparable within an allelic series)
# ARX (Homo sapiens) = ARX (Homo sapiens) (UniProt Q96QS3)
# ARX L343Q (Homo sapiens) = ARX L343Q (Homo sapiens) (UniProt Q96QS3)
# ARX P353R (Homo sapiens) = ARX P353R (Homo sapiens) (UniProt Q96QS3)
# ARX R332H (Homo sapiens) = ARX R332H (Homo sapiens) (UniProt Q96QS3)
# ARX P353L (Homo sapiens) = ARX P353L (Homo sapiens) (UniProt Q96QS3)
# ARX T333N (Homo sapiens) = ARX T333N (Homo sapiens) (UniProt Q96QS3)
# [1] = molecular target: PROP1 R112Q (Homo sapiens) (UniProt O75360)
# [2] = molecular target: HOXD13 I322L (Homo sapiens) (UniProt P35453)
# [3] = molecular target: T1, HESX1 E149K (Homo sapiens) (UniProt Q9UBX0)
# T1 sequence: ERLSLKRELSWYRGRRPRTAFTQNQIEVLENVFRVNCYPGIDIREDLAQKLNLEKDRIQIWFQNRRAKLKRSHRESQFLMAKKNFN
# [4] = molecular target: T2, HESX1 N125S (Homo sapiens) (UniProt Q9UBX0)
# T2 sequence: T1 sequence with N31S, K55E
# [5] = molecular target: T3, HESX1 R160C (Homo sapiens) (UniProt Q9UBX0)
# T3 sequence: T1 sequence with K55E, R66C
# [6] = molecular target: PITX2 R108H (Homo sapiens) (UniProt Q99697)
# [7] = molecular target: PITX2 T114P (Homo sapiens) (UniProt Q99697)
# [8] = molecular target: HOXD13 I297V (Homo sapiens) (UniProt P35453)
# [9] = molecular target: HOXD13 N298S (Homo sapiens) (UniProt P35453)
# [10] = molecular target: HOXD13 Q325K (Homo sapiens) (UniProt P35453)
# [11] = molecular target: HOXD13 Q325R (Homo sapiens) (UniProt P35453)
# [12] = molecular target: HOXD13 R306W (Homo sapiens) (UniProt P35453)
# [13] = molecular target: HOXD13 S316C (Homo sapiens) (UniProt P35453)
# ISX R83Q (Homo sapiens) = ISX R83Q (Homo sapiens) (UniProt Q2M1V0)
# [14] = molecular target: PITX2 L100Q (Homo sapiens) (UniProt Q99697)
# [15] = molecular target: PITX2 R130W (Homo sapiens) (UniProt Q99697)
# [16] = molecular target: PROP1 R99Q (Homo sapiens) (UniProt O75360)
# ISX (Homo sapiens) = ISX (Homo sapiens) (UniProt Q2M1V0)
sequence,measurement,setting,value
GAAATTTA [8-mer GAAATTTA],binding signal,ARX (Homo sapiens),11.2
same,binding signal,ARX L343Q (Homo sapiens),10.6
same,binding signal,ARX P353R (Homo sapiens),10.7
same,binding signal,ARX R332H (Homo sapiens),10.6
CTAATCGA [8-mer CTAATCGA],binding signal,ARX P353L (Homo sapiens),12.1
CCTAACGA [8-mer CCTAACGA],binding signal,ARX P353L (Homo sapiens),11.3
AATACAAG [8-mer AATACAAG],binding signal,ARX (Homo sapiens),11.2
same,binding signal,ARX T333N (Homo sapiens),11
GCTAATGA [8-mer GCTAATGA],binding signal,ARX P353L (Homo sapiens),12.3
AATATAGC [8-mer AATATAGC],binding signal,ARX (Homo sapiens),11.1
same,binding signal,ARX P353R (Homo sapiens),10.6
ACTCGTTA [8-mer ACTCGTTA],binding signal,ARX P353L (Homo sapiens),11.5
AATCACAG [8-mer AATCACAG],binding signal,ARX (Homo sapiens),11.1
same,binding signal,ARX L343Q (Homo sapiens),10.7
same,binding signal,ARX P353R (Homo sapiens),10.7
same,binding signal,[1],11.7
GGAATTAC [8-mer GGAATTAC],binding signal,ARX (Homo sapiens),11.7
same,binding signal,ARX L343Q (Homo sapiens),10.8
same,binding signal,ARX P353R (Homo sapiens),10.7
same,binding signal,ARX R332H (Homo sapiens),10.9
TAACTAAA [8-mer TAACTAAA],binding signal,ARX (Homo sapiens),11.2
same,binding signal,ARX L343Q (Homo sapiens),10.6
same,binding signal,ARX P353R (Homo sapiens),10.6
same,binding signal,ARX R332H (Homo sapiens),10.6
ATTATAAA [8-mer ATTATAAA],binding signal,ARX (Homo sapiens),11.7
same,binding signal,ARX L343Q (Homo sapiens),10.5
same,binding signal,ARX P353R (Homo sapiens),10.6
same,binding signal,ARX R332H (Homo sapiens),10.6
GATCGTTA [8-mer GATCGTTA],binding signal,ARX P353L (Homo sapiens),11.4
CCTCATTA [8-mer CCTCATTA],binding signal,ARX P353L (Homo sapiens),12.4
CCTCGTTA [8-mer CCTCGTTA],binding signal,ARX P353L (Homo sapiens),11.7
same,binding signal,[2],12.1
CTCTGGGC [8-mer CTCTGGGC],binding signal,[3],9.97
same,binding signal,[4],7.78
same,binding signal,[5],10
AGGCAGAC [8-mer AGGCAGAC],binding signal,[3],10.1
same,binding signal,[4],7.89
same,binding signal,[5],10.1
ATTAATTC [8-mer ATTAATTC],binding signal,ARX T333N (Homo sapiens),11.9
same,binding signal,[6],9.4
same,binding signal,[7],9.45
same,binding signal,[1],12.6
TATTAATA [8-mer TATTAATA],binding signal,ARX T333N (Homo sapiens),11.8
same,binding signal,[8],12.6
same,binding signal,[2],11.8
same,binding signal,[9],12.9
same,binding signal,[10],12.3
same,binding signal,[11],12.5
same,binding signal,[12],12.2
same,binding signal,[13],12.4
AATTAAGG [8-mer AATTAAGG],binding signal,ARX T333N (Homo sapiens),11.8
same,binding signal,ISX R83Q (Homo sapiens),13.5
same,binding signal,[14],9.74
same,binding signal,[6],8.81
same,binding signal,[15],8.64
same,binding signal,[7],8.81
AGCGGGGG [8-mer AGCGGGGG],binding signal,[3],9.86
same,binding signal,[4],7.67
same,binding signal,[5],10.1
CGGCACAG [8-mer CGGCACAG],binding signal,[3],9.91
same,binding signal,[4],7.64
same,binding signal,[5],10.1
ACAAATTA [8-mer ACAAATTA],binding signal,ARX T333N (Homo sapiens),11.8
same,binding signal,[1],12.5
same,binding signal,[16],12
ATTAATAA [8-mer ATTAATAA],binding signal,ARX T333N (Homo sapiens),11.9
same,binding signal,[8],12.5
same,binding signal,[2],11.5
same,binding signal,[9],12.6
same,binding signal,[10],11.9
same,binding signal,[11],12.1
same,binding signal,[12],11.8
same,binding signal,[13],12.3
same,binding signal,ISX (Homo sapiens),14.6
same,binding signal,ISX R83Q (Homo sapiens),13.3
same,binding signal,[14],10.6
same,binding signal,[6],9.37
same,binding signal,[15],8.95
same,binding signal,[7],9.29
ATAAATTA [8-mer ATAAATTA],binding signal,ARX T333N (Homo sapiens),11.8
AATTAGAC [8-mer AATTAGAC],binding signal,ARX P353L (Homo sapiens),12.2
same,binding signal,ISX R83Q (Homo sapiens),13.3
AATTATGC [8-mer AATTATGC],binding signal,[3],11.3
CCCCCACG [8-mer CCCCCACG],binding signal,[3],9.87
same,binding signal,[4],7.71
same,binding signal,[5],10
ATATTACC [8-mer ATATTACC],binding signal,[3],10.8
same,binding signal,[4],9.21
ACTCATTA [8-mer ACTCATTA],binding signal,ARX P353L (Homo sapiens),12.3
same,binding signal,[1],12.3
same,binding signal,[16],12
GCTCGTTA [8-mer GCTCGTTA],binding signal,ARX P353L (Homo sapiens),11.7
same,binding signal,[2],12.1
CTAACGAG [8-mer CTAACGAG],binding signal,ARX P353L (Homo sapiens),11.8
same,binding signal,[2],11.6
AATAATTG [8-mer AATAATTG],binding signal,ARX T333N (Homo sapiens),11.8
same,binding signal,[3],11.6
same,binding signal,[4],11.9
same,binding signal,[5],10.4
same,binding signal,ISX (Homo sapiens),14.7
same,binding signal,ISX R83Q (Homo sapiens),13.2
same,binding signal,[1],12.7
same,binding signal,[16],12.1
ATTATGTG [8-mer ATTATGTG],binding signal,[3],10.9
same,binding signal,[4],9.66
same,binding signal,[5],10.5
AATTAAAC [8-mer AATTAAAC],binding signal,ARX T333N (Homo sapiens),11.8
same,binding signal,ISX R83Q (Homo sapiens),13.4
AATTAAGA [8-mer AATTAAGA],binding signal,ARX T333N (Homo sapiens),11.8
same,binding signal,[3],11.2
same,binding signal,[4],11
same,binding signal,[5],10.2
same,binding signal,ISX (Homo sapiens),14.9
same,binding signal,ISX R83Q (Homo sapiens),13.7
ATATTAAT [8-mer ATATTAAT],binding signal,ARX T333N (Homo sapiens),11.9
same,binding signal,[8],12.3
same,binding signal,[9],12.6
same,binding signal,[11],12.3
same,binding signal,[12],11.8
same,binding signal,[13],12.2
ACTAATCA [8-mer ACTAATCA],binding signal,ARX P353L (Homo sapiens),12.2
same,binding signal,ISX (Homo sapiens),14
same,binding signal,ISX R83Q (Homo sapiens),12.3
CCATATTA [8-mer CCATATTA],binding signal,[3],10.7
same,binding signal,[4],9.32
CTCGTTAC [8-mer CTCGTTAC],binding signal,ARX P353L (Homo sapiens),11.5
same,binding signal,[2],11.8
CGTAATAG [8-mer CGTAATAG],binding signal,[3],10.7
GCACATTA [8-mer GCACATTA],binding signal,[3],10.6
same,binding signal,[4],9.02
ATTATGAA [8-mer ATTATGAA],binding signal,[3],11
same,binding signal,[4],9.79
CATGGGCG [8-mer CATGGGCG],binding signal,[3],9.99
same,binding signal,[4],7.59
same,binding signal,[5],10.2
AATAGACT [8-mer AATAGACT],binding signal,[3],10.7
AGGGTAGC [8-mer AGGGTAGC],binding signal,[3],10.1
same,binding signal,[4],7.83
same,binding signal,[5],10.2
ATAACGAG [8-mer ATAACGAG],binding signal,ARX P353L (Homo sapiens),11.6
same,binding signal,[2],12
AATTATTA [8-mer AATTATTA],binding signal,ARX T333N (Homo sapiens),11.8
same,binding signal,[3],11.4
same,binding signal,[4],11.2
same,binding signal,[5],10.5
same,binding signal,[1],12.6
same,binding signal,[16],12.1
AATTAGGC [8-mer AATTAGGC],binding signal,ARX P353L (Homo sapiens),12.3
same,binding signal,[16],12.1
ATTACGTG [8-mer ATTACGTG],binding signal,[3],10.8
AAATTGCA [8-mer AAATTGCA],binding signal,[3],10.7
same,binding signal,[4],9.23
CGCCAAGA [8-mer CGCCAAGA],binding signal,[3],9.85
same,binding signal,[4],7.79
same,binding signal,[5],10
CCACCATC [8-mer CCACCATC],binding signal,[3],10
same,binding signal,[4],7.94
same,binding signal,[5],10
CAAGCACC [8-mer CAAGCACC],binding signal,[3],10.1
same,binding signal,[4],7.68
same,binding signal,[5],10.1
CCAGCGGG [8-mer CCAGCGGG],binding signal,[3],9.9
same,binding signal,[4],7.15
same,binding signal,[5],9.9
CCTTCGAG [8-mer CCTTCGAG],binding signal,[3],9.87
same,binding signal,[4],7.68
same,binding signal,[5],10
CCGGGACC [8-mer CCGGGACC],binding signal,[3],9.86
same,binding signal,[4],7.91
same,binding signal,[5],10
GGAAATTA [8-mer GGAAATTA],binding signal,[3],10.9
same,binding signal,[4],10.1
same,binding signal,[5],10.3
